Some of the results follow. Values were computed here from the reads of four pooled replicates and scatter widely.
Each sequence was assayed against T1, Pho4 (S. cerevisiae) (UniProt P07270) (assay: relative binding free energy (BET-seq); higher = weaker binding). Conditions: reference: library average.
T1 sequence: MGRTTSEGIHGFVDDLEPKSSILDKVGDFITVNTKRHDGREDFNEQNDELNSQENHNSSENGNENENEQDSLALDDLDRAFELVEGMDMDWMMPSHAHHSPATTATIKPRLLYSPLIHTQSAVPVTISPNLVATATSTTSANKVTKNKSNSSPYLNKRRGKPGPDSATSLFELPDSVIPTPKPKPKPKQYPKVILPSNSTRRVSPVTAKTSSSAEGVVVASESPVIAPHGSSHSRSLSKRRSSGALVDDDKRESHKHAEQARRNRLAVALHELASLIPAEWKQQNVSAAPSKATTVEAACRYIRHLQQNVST

| Sequence | relative binding free energy |
| --- | --- |
| TAGCACACGTGGGTTG | -0.08 kcal/mol |
| TTGTGCACGTGCTACG | 0.18 kcal/mol |
| GGGCCCACGTGTGTGG | 0.04 kcal/mol |
| TCTCGCACGTGGGGGA | -0.26 kcal/mol |
| GGGGGCACGTGATGAT | 0.01 kcal/mol |
| GCGTGCACGTGGTTAT | 0.05 kcal/mol |
| TGATTCACGTGTATTT | 0.17 kcal/mol |
| GTTAACACGTGTTGTG | -0.01 kcal/mol |
| GTAGACACGTGAGTAT | 0.3 kcal/mol |
| GGGCTCACGTGTATAG | 0.3 kcal/mol |
| TGTGACACGTGTGAAT | 0.05 kcal/mol |
| TTGTGCACGTGAAAAG | 0.18 kcal/mol |
| TTGGCCACGTGGTATG | -0.09 kcal/mol |
| ACGTACACGTGGGAGT | -0.04 kcal/mol |
| GGTTGCACGTGTTAAA | 0.12 kcal/mol |
| GGCTCCACGTGGGGGG | -0.06 kcal/mol |
| TGAGCCACGTGTGGAA | 0.12 kcal/mol |
| TTGAACACGTGTAGGA | 0 kcal/mol |
| CGGACCACGTGGGGGG | -0.34 kcal/mol |
| TATATCACGTGTAATA | 0.17 kcal/mol |
| GGAAGCACGTGCGGGA | -0.19 kcal/mol |
| GTCATCACGTGTGGGC | 0.16 kcal/mol |
| TTAATCACGTGTTGCT | 0.04 kcal/mol |

| Sequence | relative binding free energy |
| --- | --- |
| GGCAGCACGTGAGGGA | 0.16 kcal/mol |
| AGTGACACGTGGCAGG | -0.12 kcal/mol |
| AGGGACACGTGGCATT | -0.02 kcal/mol |
| GAAATCACGTGTGAGG | 0.25 kcal/mol |
| TTAATCACGTGATAGA | 0.28 kcal/mol |
| GTGTTCACGTGGTATC | 0.29 kcal/mol |
| CTGTGCACGTGTAGTA | 0.04 kcal/mol |
| TGTTGCACGTGTTTCG | 0.09 kcal/mol |
| TGTGTCACGTGTAGCT | -0.01 kcal/mol |
| TGGGACACGTGCCGTA | 0.09 kcal/mol |
| AGGTGCACGTGATGGA | 0.11 kcal/mol |
| CGGGTCACGTGGGGGA | -0.06 kcal/mol |
| AGAGGCACGTGTGGCG | -0.03 kcal/mol |
| TGGTACACGTGGCGTG | 0.03 kcal/mol |
| AGGGGCACGTGACATT | -0.1 kcal/mol |
| GGGCACACGTGCGGGA | 0.1 kcal/mol |
| TAAAACACGTGGTGGT | -0.05 kcal/mol |
| GCGGTCACGTGGTTTG | 0.24 kcal/mol |
| ATCGACACGTGAGGTT | 0.18 kcal/mol |
| TATGCCACGTGGTCGT | -0.16 kcal/mol |
| TTTTGCACGTGTGAAA | 0.19 kcal/mol |
| TCGGGCACGTGATCGG | -0.01 kcal/mol |
| AAGTACACGTGAGTAT | 0.33 kcal/mol |

| Sequence | relative binding free energy |
| --- | --- |
| ACGTGCACGTGTGCGT | -0.01 kcal/mol |
| CGGTACACGTGGGGGG | -0.08 kcal/mol |
| ATGGACACGTGTTAAT | 0.07 kcal/mol |
| GTGTGCACGTGAGCTA | 0.06 kcal/mol |
| TTGTACACGTGGATTG | 0.04 kcal/mol |
| CGTATCACGTGGTGTA | -0.01 kcal/mol |
| CTTGTCACGTGACGTG | 0.1 kcal/mol |
| TGTAGCACGTGATGTC | 0.11 kcal/mol |
| AAAAACACGTGATGGT | 0.22 kcal/mol |
| TGTTACACGTGATGCA | 0.14 kcal/mol |
| TTATTCACGTGGAATC | 0.26 kcal/mol |
| TGTAGCACGTGTCTGG | -0.07 kcal/mol |
| GAATTCACGTGTGGCG | 0.18 kcal/mol |
| GCCGCCACGTGGGGGG | -0.29 kcal/mol |
| TGATCCACGTGGAGGT | -0.13 kcal/mol |
| AAGTACACGTGGCGTG | 0.05 kcal/mol |
| TTTTGCACGTGCTAGA | -0.16 kcal/mol |
| ATCGGCACGTGGGGCT | -0.23 kcal/mol |
| GAGTGCACGTGGCATG | -0.11 kcal/mol |
| GTAGGCACGTGTTTGC | -0.02 kcal/mol |
| ATGGGCACGTGTCGTG | -0.1 kcal/mol |
| GAAGACACGTGTGTGT | 0.11 kcal/mol |
| AAGTGCACGTGTGTAC | 0.11 kcal/mol |

| Sequence | relative binding free energy |
| --- | --- |
| TGAGTCACGTGGGCAT | -0.05 kcal/mol |
| ATTTGCACGTGAGCGG | 0.1 kcal/mol |
| TGTTGCACGTGTCGTT | 0.03 kcal/mol |
| AGAGCCACGTGAGATG | 0.35 kcal/mol |
| GTACGCACGTGCGGGG | -0.17 kcal/mol |
| TTAGGCACGTGGGTAT | -0.22 kcal/mol |
| TAGGGCACGTGTTCGC | -0.16 kcal/mol |
| TTTATCACGTGGGGTA | -0.01 kcal/mol |
| ATTTACACGTGGTGCG | 0 kcal/mol |
| ATTGTCACGTGCTTGA | 0.01 kcal/mol |
| AATGGCACGTGGTGGG | -0.11 kcal/mol |
| ATCGTCACGTGAGCGG | 0.21 kcal/mol |
| AAGGACACGTGGATGG | 0.03 kcal/mol |
| ATAGTCACGTGTTTTG | 0.06 kcal/mol |
| TTTCGCACGTGGTAAT | -0.09 kcal/mol |
| ATTGTCACGTGGTTTA | -0.11 kcal/mol |
| GTGGACACGTGATTAT | 0.21 kcal/mol |
| TGGGGCACGTGATAGT | 0.05 kcal/mol |
| TGGATCACGTGTTATG | 0.36 kcal/mol |
| AGCTTCACGTGTTAAG | 0.34 kcal/mol |
| TGGGGCACGTGCAAAG | -0.01 kcal/mol |
| AGTAACACGTGCGTGG | -0.08 kcal/mol |
| TTGTACACGTGGTCGA | 0.05 kcal/mol |

| Sequence | relative binding free energy |
| --- | --- |
| CGCATCACGTGTGGTG | 0.05 kcal/mol |
| CGGGGCACGTGATAGA | 0.06 kcal/mol |
| ATTGGCACGTGTGCTT | -0.07 kcal/mol |
| GAATGCACGTGGTTGA | -0.03 kcal/mol |
| TTTTGCACGTGGGGCT | -0.03 kcal/mol |
| TTCTTCACGTGCGGTT | 0.32 kcal/mol |
| TATGACACGTGTTAGC | 0.07 kcal/mol |
| GGCTGCACGTGAAAGT | 0.33 kcal/mol |
| ATTAACACGTGTATGT | -0.04 kcal/mol |
| GGTATCACGTGTTTCT | 0.24 kcal/mol |
| GGCTGCACGTGCAGGG | 0.03 kcal/mol |
| ATATGCACGTGAGATG | 0.2 kcal/mol |
| ATTCACACGTGGGTTT | 0.05 kcal/mol |
| TTGTTCACGTGGAAGT | 0.46 kcal/mol |
| ATTGGCACGTGACATT | -0.09 kcal/mol |
| AGTAACACGTGTGTAG | 0.09 kcal/mol |
| GGCTTCACGTGTAAGT | 0.28 kcal/mol |
| TTTTACACGTGGGTGT | -0.01 kcal/mol |
| AAAGGCACGTGTAGAG | 0.02 kcal/mol |
| TTGATCACGTGGATCT | 0.18 kcal/mol |
| AGCGTCACGTGTAATG | 0.14 kcal/mol |
| CGCGTCACGTGTTTGA | 0.21 kcal/mol |
| TGTTCCACGTGTTTTC | 0.1 kcal/mol |
